Measurements as given in the supplement of paper PMC11417369.
± gives the standard deviation of the averaged measurements. The list shows a part of the results.

These sequences were tested on PfAP2-EXP AP2 domain (GST-tagged) (assay: gcPBM binding intensity (ln(normalized median fluorescence intensity)); higher = stronger DNA binding).
Outline: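 In this array assay, P. falciparum DNA-binding domains with a GST tag, expressed in E. coli, were applied for 1 h to primer-extended double-stranded 36-bp intergenic genomic probes and negative controls on an Agilent 4 × 180k array. Bound protein was visualised with Alexa488 anti-GST antibody at 488 nm. Binding intensity is the highest Masliner-normalised natural-log median intensity across replicate spots of either probe orientation.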

| Sequence | gcPBM binding intensity (ln) |
| --- | --- |
| AATATGAAACAAGACGCACACATAAATAAATAAATA [CACACA_site326] | 8.84 ± 0.49 |
| CTAAAAAAATAATAAAGTACACAAACGAATATATAA [XGTACX_site668] | 8.99 ± 0.38 |
| ACATATGGCACATATGTACACACGTATAGATAATAT [CACACA_site2024] | 8.95 ± 0.23 |
| TTGAAAAATCAGCACACACACAAATACATACATATT [CACACA_site7505] | 8.59 ± 0.54 |
| CTTTTTTGGTACATCACACATTTTTACATTCCCTTT [CACACA_site4957] | 9 ± 0.28 |
| TTTTTTTTTTTTTTTGCACACTATATTTAATATAAG [CACACA_site2444] | 8.4 ± 0.33 |
| TTAATAGTGGAAATATGTACATAATTTTGGTCTTTT [XGTACX_site1664] | 8.78 ± 0.3 |
| CTGTTCAAAATATGAACACACACATATATATATATA [CACACA_site8638] | 10.1 ± 0.46 |
| CCATATTTAATAAAATGTACTCATTCTTTTATTTTA [XGTACX_site7802] | 8.48 ± 0.34 |
| TATTGGATCACACAAAAATGTATAAATAAATAGAAA [TGCATGCA_negctrl_site490] | 8.61 ± 0.28 |
| ATTCAATAAACGTATTGTACAAAAGAACGATATATT [XGTACX_site2533] | 8.87 ± 0.53 |
| TGAGAATAAAAAAAAGGGATTATTAGATTTCTCCTT [TGCATGCA_negctrl_site326] | 7.99 ± 0.39 |
| ATCATAACTTGATACGCACACGTTATATAAATAAAA [CACACA_site4955] | 8.52 ± 0.47 |
| TTATGTTGCGAGTTCTTAAGATATAAAAAATTCTTC [GTGCAC_negctrl_site45] | 8.39 ± 0.46 |
| AAAAAAATAAGGTGCACACAAAAAAAAAAAAAAAAA [CACACA_site812] | 8.64 ± 0.92 |
| AAGACAAATTGTGACACACACAAAAAAAAAAAAAAA [CACACA_site3727] | 8.28 ± 0.54 |
| GATTCATTTCGTAATACACACAACAAATATTTCAAA [CACACA_site1772] | 8.59 ± 0.41 |
| AATGTAAATAAGTGTACACATATATAATACATACAT [CACACA_site4938] | 8.82 ± 0.33 |
| TACCTTATATTATATACACACATATAATATAATATA [CACACA_site1328] | 8.36 ± 0.25 |
| GTCTCCTTTATTTTTGGTACAGATAAGATAAAAGGA [XGTACX_site1591] | 8.5 ± 0.34 |
| TATAACATTATTTTGTGTACACATTCGGTTATATTA [XGTACX_site6310] | 8.96 ± 0.3 |
| AATCAAAATATATCTACACACATTTAAGTAACCCAT [CACACA_site5846] | 8.57 ± 0.62 |
| ATTATCAAAAAAAAAAAAAAAAAAAAAAAAAAAAAA [CACACA_negctrl_site1118] | 7.93 ± 0.4 |

| Sequence | gcPBM binding intensity (ln) |
| --- | --- |
| GTGTTCATATATAGCCGTACATATGTCTTATGAACG [XGTACX_site5647] | 8.77 ± 0.34 |
| ATATAGATCTATAATACACACTTATGAAATGTCTAA [CACACA_site6946] | 8.52 ± 0.49 |
| TTGTTTCCGATGAAAGAAAGGAAATTATAATATATC [GTGCAC_negctrl_site516] | 8.57 ± 0.47 |
| TAAAATAATATTTATGTGCACATATAATTATTAATT | 8.58 ± 0.028 |
| AGAAAAAACAAAAGAGAAATGAAAAAAAAAAAAAAA [XGTACX_negctrl_site482] | 8.29 ± 0.47 |
| ATATATATTTTTATAACACACAATGATGTACATTAC [CACACA_site1076] | 8.52 ± 0.26 |
| TTTGTGCTTATCCTAACACACACAACATATAAGAAA [CACACA_site9091] | 8.61 ± 0.42 |
| TTATATATACCATAATGTACTCTATTATATAAAAAA [XGTACX_site7464] | 8.57 ± 0.29 |
| TGTGTAGCTAGGGGGTTGCTAATTTTTGTTTTGACC [CACACA_negctrl_site634] | 9.3 ± 0.24 |
| AATATTTCTTTAATTTGTACATATAAGGGAAAATAA [XGTACX_site6221] | 8.56 ± 0.45 |
| CGGAAAAATTAAAGCACACAAAAAAAAATAAAAAAA [CACACA_site1133] | 8.65 ± 0.4 |
| TTTTATTAATATTGCATGCACACTATATAATAATTG [CACACA_site1049] | 10.02 ± 0.064 |
| TTTTTATTATTTTAAAGTACTCTTTAGTAATTCCCT [XGTACX_site5863] | 8.46 ± 0.42 |
| CACAGATAAATTAACACACACACACCGATATATATA [CACACA_site6049] | 8.83 ± 0.37 |
| AAAAAACATACATACACACACATAAATATTTATATT [CACACA_site7300] | 8.7 ± 0.4 |
| GGTGGTGGTGGGTGGGTGCTTCTATTATTATATTAT [GTGCAC_site9391] | 9.855 ± 0.078 |
| GATGTTTCTATTTTAGTGCATTTTAAATAAATAAAT | 8.72 ± 0.17 |
| TATATATATTATTATGCATGTAATAAAACAAATAAT [TGCATGCA_site625] | 8.98 ± 0.38 |
| ACGTTACATACATATACACACACATATATATATATA [CACACA_site8203] | 10.1 ± 0.35 |
| TCATTCTAAATATAAACACACATAAATAAATACATT [CACACA_site5788] | 8.79 ± 0.27 |
| CTTAGGTGTTCATAGAGTACAAATAAAAAAATAAGA [XGTACX_site2294] | 8.76 ± 0.49 |
| ATATATATTTTAATAACACACATATATTATATTATA [CACACA_site4387] | 8.38 ± 0.31 |
| ATTTCTTCTTTTTTTGTGAAACTGGAATATATATAT [XGTACX_negctrl_site527] | 9.17 ± 0.057 |

| Sequence | gcPBM binding intensity (ln) |
| --- | --- |
| ATAAAAAAATAAATAACACACAAAATTACACGAAAA [CACACA_site3620] | 8.88 ± 0.66 |
| TATTAAAAAATTATATGTACACATTTGTTATATACA [XGTACX_site2232] | 8.48 ± 0.38 |
| TTCTTTATATATGTTCGTACATATTATTATAATACA [XGTACX_site1549] | 8.72 ± 0.33 |
| AATTAAAGGAATTACAACTTTGCAAGCGCAACATAA [CACACA_negctrl_site1411] | 8.48 ± 0.27 |
| TATGTCCATATTTCCACACACATATTATTTTTATAT [CACACA_site3798] | 8.94 ± 0.38 |
| CACCATGTTAACAATACATGCATCACTATATAAATG [TGCATGCA_site36] | 8.69 ± 0.42 |
| AAAAAAAAGGAAATAACACACATGTATATATTTATA [CACACA_site1606] | 8.39 ± 0.43 |
| AGTAATTATTTTAGAGTGCATAGTTTTTTAATAAAT | 8.4 ± 0.2 |
| AAATATATTTTTAATAGTACAATATGAAAATTTCAT [XGTACX_site2562] | 8.38 ± 0.33 |
| TTTTTTTTTTTTTTTTGTACTCATACATACTATTAT [XGTACX_site989] | 8.37 ± 0.54 |
| GTACACATATATATATATATATATATATATATATAT [CACACA_negctrl_site800] | 9.97 ± 0.34 |
| TAATTTTCATGTTCATGTACTTAAATATAAGGTAAA [XGTACX_site3284] | 8.36 ± 0.3 |
| ATTCATAACAAAAAAAGTACTCAAAATAATAATAAA [XGTACX_site6079] | 8.59 ± 0.39 |
| TGCCTTATTAAAAGAATTACACATATTTAATCGAAA [GTGCAC_negctrl_site153] | 8.06 ± 0.27 |
| AAATAATTAAAAAAAAGTACACATGTGACTACATAT [XGTACX_site8767] | 8.85 ± 0.38 |
| TCATCATATTATATATGTACATATATAATAATTTAT [XGTACX_site1625] | 8.53 ± 0.33 |
| ATTGTATCTGTATATGCACACAATATCTGTACTTCT [CACACA_site5445] | 8.77 ± 0.3 |
| CGAAATCATATGTACACACACATATATATATATATA [CACACA_site2151] | 10.2 ± 0.62 |
| TTTCAATACTGAAACTGTACTTGTTTTACTTCTATT [XGTACX_site5924] | 8.42 ± 0.16 |
| AAATAAAGCACACCGACACACACATATATATATATA [CACACA_site8256] | 10.2 ± 0.33 |
| TATATATATGTATACACACATACAAATATGTAAAAA [CACACA_site3720] | 8.4 ± 0.35 |
| TTATAATTTTTTTTTGCATGTGGGTTTTTTTTTGTT [TGCATGCA_site968] | 8.96 ± 0.42 |
| ATAAAGAAACATATATGTACTTATATATATATATAT [XGTACX_site5625] | 10.1 ± 0.35 |

| Sequence | gcPBM binding intensity (ln) |
| --- | --- |
| TATTCGAAAGAATAGGCATGCAAACATATCTTATTA [TGCATGCA_site147] | 8.95 ± 0.41 |
| TATTATTTATTATATGCACACATCGAACTATTATTT [CACACA_site2544] | 8.73 ± 0.35 |
| AAACATATAAATCACGGTACACATTATTGAAAGTGT [XGTACX_site2966] | 8.66 ± 0.33 |
| ATATAATATTAGTGCACACACAAAAATGTACTAAAC [CACACA_site632] | 9.22 ± 0.36 |
| TTCTATATTATATATGCATGTGTTATTCTTATTTTC [TGCATGCA_site92] | 9.13 ± 0.4 |
| ATATATATTATATGCACACTTATATTTCATTAGATT [CACACA_site2599] | 8.69 ± 0.057 |
| ATTAATCCAAATGAATGTACTTAATAATGTAATTAT [XGTACX_site8946] | 8.2 ± 0.33 |
| AAAAAAAAAATACATACACACACACCCACCCATATA [CACACA_site9187] | 9.14 ± 0.54 |
| TGTCCCCCTTTCTATGCACACTTTAAATTATTCAAA [CACACA_site4200] | 9.06 ± 0.23 |
| ATATTTAGAATGTTCCTACACACCAAATTTAAGTGG [CACACA_site2346] | 8.45 ± 0.36 |
| TTTATTTTACAAAAAAGTACAAGAAGAAATATCAAT [XGTACX_site7812] | 8.7 ± 0.45 |
| TATTAAAAGTAAAAAACACACATGGATAAATACATA [CACACA_site6048] | 8.65 ± 0.41 |
| ATATATAATATATGTGGTACGCAAAATATTATATTA [XGTACX_site4969] | 8.6 ± 0.35 |
| AATACACGCAAACACACACACACACCCACATATATA [CACACA_site638] | 8.71 ± 0.4 |
| AATGATATATTATAAACACACAAAGATGGATATATA [CACACA_site7349] | 8.47 ± 0.44 |
| TTATATATAAATGAAAGTACAAAACAGGAAAGAATA [XGTACX_site1076] | 9.23 ± 0.51 |
| GAACATTTCACATGGTGTACTCTCTTTTTCAAATAA [XGTACX_site1632] | 8.51 ± 0.4 |
| TCAATATACCAAAAATGTACAAAAAATAAACAATAT [XGTACX_site8251] | 9.05 ± 0.54 |
| TTTATATTATAATATAATAATGATCTTAATTTTTTT [XGTACX_negctrl_site100] | 8.21 ± 0.3 |
| TATAACAAGTAATGTTGTACATTATATTATGTAATA [XGTACX_site2769] | 8.17 ± 0.26 |
